Results: the antibiotic and cytotoxicity screens of Wong et al. (2023)
The list shows a part of the results.

Key:
HSkMC = human skeletal muscle cells; assay: cytotoxicity call (relative viability < 0.9); conditions: 10 µM
S. aureus RN4220 = assay: growth inhibition call (relative growth <= 0.2); conditions: 50 µM

| Structure (SMILES) | cytotoxicity call (HSkMC) | growth inhibition call (S. aureus RN4220) |
| --- | --- | --- |
| C[C@@H]1CCCCO[C@@H](CN(C)C(=O)CCC(F)(F)F)[C@H](C)CN([C@H](C)CO)C(=O)c2cc(NC(=O)NC3CCCCC3)ccc2O1 | inactive | inactive |
| Cc1ncsc1-c1ccc(CNC(=O)[C@@H]2C[C@@H](O)CN2C(=O)[C@H](C(C)C)N2Cc3ccccc3C2=O)cc1 | inactive | inactive |
| COc1ccc(S(=O)(=O)Nc2ccc3c(c2)C(=O)N([C@@H](C)CO)C[C@@H](C)[C@@H](CN(C)C(=O)Nc2cccc4ccccc24)O3)cc1 | inactive | inactive |
| C/C(C[P+](c1ccccc1)(c1ccccc1)c1ccccc1)=N\NC(=O)CCCCCC(=O)Nc1ccccc1O | inactive | inactive |
| C[C@H](CO)N1C[C@H](C)[C@@H](CN(C)C(=O)C2CC2)OCc2cnnn2CCCC1=O | inactive | inactive |
| C[C@@H]1CN([C@@H](C)CO)C(=O)c2cc(NC(=O)CCCCCC(=O)Nc3ccccc3N)ccc2O[C@@H]1CN(C)CC1CCCCC1 | inactive | inactive |
| COc1cccc(-c2cccc(-c3nc(C(=O)NCC(F)(F)F)cc4c3[C@@H](CCO)N([S@](=O)C(C)(C)C)C4)c2)c1 | inactive | inactive |
| COc1ccc(NC(=O)Nc2ccc3c(c2)C(=O)N([C@H](C)CO)C[C@@H](C)[C@H](CN(C)CC2CC2)OCCCC[C@H](C)O3)cc1 | inactive | inactive |
| CO[C@@H]1CN(C)C(=O)c2ccc(NS(=O)(=O)c3ccccc3)cc2OC[C@H](C)N(C(=O)NC(C)C)C[C@@H]1C | inactive | inactive |
| C[C@H](CO)N1C[C@H](C)[C@@H](CN(C)C)Oc2ccc(NS(=O)(=O)c3ccc(Cl)cc3)cc2CC1=O | inactive | inactive |
| COc1ccc([C@@H](NC(=O)C2CCN(Cc3ccc(Oc4ccccc4)cc3)CC2)c2ccccn2)cc1 | inactive | inactive |
| CC(=O)N[C@H]1[C@H]([C@H](O)[C@H](O)CO)OC(C(=O)O)=C[C@@H]1NC(=N)N | inactive | inactive |
| O=c1c(O)c(-c2ccccc2)oc2cccc(O)c12 | inactive | inactive |
| C[C@@H]1CN([C@H](C)CO)C(=O)c2cc(NC(=O)Nc3ccc(F)cc3)ccc2O[C@H]1CN(C)C(=O)Nc1ccc(C(F)(F)F)cc1 | inactive | inactive |
| COc1ccc(S(=O)(=O)N(C)C[C@@H]2Oc3ccc(NS(=O)(=O)c4c(C)noc4C)cc3C(=O)N([C@@H](C)CO)C[C@H]2C)cc1 | inactive | inactive |
| COCC(=O)N1C[C@H](C)[C@H](OC)CN(C)C(=O)c2cc(NC(=O)Nc3cccc(F)c3)ccc2OC[C@@H]1C | inactive | inactive |
| C[C@H]1CCCCO[C@H](CN(C)S(=O)(=O)c2ccc(Cl)cc2)[C@@H](C)CN([C@@H](C)CO)C(=O)c2cc(NC(=O)Nc3ccc(F)cc3)ccc2O1 | inactive | inactive |
| COc1ccc(NC(=O)N(C)C[C@H]2OCCCC[C@H](C)Oc3ccc(NS(=O)(=O)c4ccc(OC)cc4)cc3C(=O)N([C@H](C)CO)C[C@@H]2C)cc1 | inactive | inactive |
| C[C@@H]1CN([C@@H](C)CO)C(=O)Cc2cc(NC(=O)Nc3cccc4ccccc34)ccc2O[C@H]1CN(C)C(=O)NC1CCCCC1 | inactive | inactive |
| C[C@@H]1CN([C@@H](C)CO)C(=O)c2cc(NS(=O)(=O)c3ccc(Cl)cc3)ccc2O[C@@H](C)CCCCO[C@H]1CN(C)C(=O)C1CCCCC1 | inactive | inactive |
| Cc1noc(C)c1S(=O)(=O)N(C)C[C@@H]1Oc2ccc(NS(C)(=O)=O)cc2CC(=O)N([C@H](C)CO)C[C@@H]1C | inactive | inactive |
| Cc1noc(C)c1NC(=O)N(C)C[C@H]1OCCCC[C@@H](C)Oc2ccc(NC(=O)CCC(F)(F)F)cc2C(=O)N([C@H](C)CO)C[C@@H]1C | inactive | inactive |
| C[C@H](CO)N1C[C@H](C)[C@@H](CN(C)C(=O)Nc2cccc3ccccc23)Oc2ccc(NS(=O)(=O)c3cccs3)cc2CC1=O | inactive | inactive |
| C[C@H]1CN([C@@H](C)CO)C(=O)Cc2cc(NS(=O)(=O)c3cccs3)ccc2O[C@H]1CN(C)Cc1ccc(Oc2ccccc2)cc1 | inactive | inactive |
| C[C@H](CO)N1C[C@H](C)[C@H](CN(C)S(=O)(=O)c2ccccc2)Oc2ccc(NS(=O)(=O)c3cn(C)cn3)cc2CC1=O | inactive | inactive |
| COc1ccccc1CN1C(=O)c2ccccc2[C@](Cc2ccccc2I)(C(=O)NCCN2CCOCC2)[C@@H]1c1ccc(CO)cc1 | inactive | inactive |
